Data published in PubChem BioAssay AID1468 (National Center for Advancing Translational Sciences (NCATS), 2008).
The campaign covered roughly 280,000 compounds. About 1,100 (0.39%) were called active. The shares of active, inactive and inconclusive entries below differ from those in the screen. Calls follow the shape of the dose curve; as a rule, active = well fitted inhibition curve with a large enough effect; inconclusive = small, poorly fitted or top-dose-only effect, or effect the other way; inactive = flat fitted curve, though single readings scatter. No potency is given beside an inconclusive call; the fits are too rough.

Each compound was assayed against Microtubule-associated protein tau (Homo sapiens) (UniProt P10636) (assay: qHTS for Inhibitors of Tau Fibril Formation, Fluorescence Polarization). Settings: K18 P301L tau heparin fibrillization, Alexa594 FP, 6 h; series mostly up to 57.7 µM.
Chain of UniProt P10636 (P10636 whole entry, looked up): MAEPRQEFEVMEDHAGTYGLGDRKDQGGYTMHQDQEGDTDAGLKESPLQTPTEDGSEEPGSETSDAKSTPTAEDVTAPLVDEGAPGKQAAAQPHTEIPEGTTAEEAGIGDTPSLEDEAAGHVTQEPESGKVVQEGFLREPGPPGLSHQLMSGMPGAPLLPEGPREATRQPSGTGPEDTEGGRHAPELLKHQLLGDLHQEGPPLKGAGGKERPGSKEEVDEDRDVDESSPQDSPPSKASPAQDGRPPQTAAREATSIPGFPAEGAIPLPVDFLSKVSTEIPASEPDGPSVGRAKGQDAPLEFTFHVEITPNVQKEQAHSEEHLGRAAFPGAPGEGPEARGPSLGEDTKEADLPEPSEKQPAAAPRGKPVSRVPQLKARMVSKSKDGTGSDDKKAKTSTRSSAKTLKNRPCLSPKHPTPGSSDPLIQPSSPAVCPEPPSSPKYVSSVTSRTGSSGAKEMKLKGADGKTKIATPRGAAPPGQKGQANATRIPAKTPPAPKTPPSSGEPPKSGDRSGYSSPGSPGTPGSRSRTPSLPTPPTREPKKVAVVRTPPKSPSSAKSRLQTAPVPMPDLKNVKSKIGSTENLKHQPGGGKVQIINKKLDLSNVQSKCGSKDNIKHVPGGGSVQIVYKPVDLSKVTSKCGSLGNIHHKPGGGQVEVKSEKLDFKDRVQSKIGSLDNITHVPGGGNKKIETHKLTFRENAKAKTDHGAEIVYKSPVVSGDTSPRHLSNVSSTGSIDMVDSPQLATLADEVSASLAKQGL
Method in brief: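 Heparin (20 uM) drove fibril formation of recombinant tau K18 P301L, 15 uM unlabeled with 0.24 uM Alexa 594 label, for 6 hr at 37 C in 100 mM sodium acetate pH 7. Fluorescence polarization (555/632 nm) read 1 hr after 30 uM ThT.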
% is scaled to controls: 0 for no effect and ±100 for the full control effect; potency is read from the fitted curve at half-maximal effect; tags tell the direction and shape of the fitted curve.
Also: nearly all actives have a fitted effect of over 55% in size.

| SMILES | Potency | activity, negative = inhibition |
| --- | --- | --- |
| c1ccc(-c2nnc3sc(-c4csc5c4CCCC5)nn23)cc1 | inconclusive [inhibitor, single point] |  |
| Oc1ccc(-c2csc(-c3ccccc3)n2)cc1O | inactive |  |
| CC(C)c1ccc(CNc2nc(-c3ccco3)nn2S(=O)(=O)c2ccccc2)cc1 | inconclusive [inhibitor, partial curve] |  |
| Cc1cccc(C(=O)Nc2ccccc2SCC(=O)Nc2ccc(C)c(Cl)c2)c1 | inconclusive [inhibitor, full curve, poor fit] |  |
| Cc1ccc(NC(=O)Cn2cc(S(=O)(=O)N3CCN(c4ccccc4F)CC3)c3ccccc3c2=O)cc1F | active: 14.1 µM |  |
| CN1Cc2sc(N)c(C#N)c2CC1(C)C | inconclusive [inhibitor, partial curve] |  |
| COc1cc(-c2nc3ccccn3c2/N=C/c2cc(OC)c(O)cc2Cl)ccc1O | inconclusive [inhibitor, single point] |  |
| O=S(=O)(c1ccc2nc(Nc3ccc(Br)cc3F)ccc2c1)N1CCCCC1 | inconclusive [inhibitor, partial curve] |  |
| CCCc1cc(=O)n2[nH]c(C(F)(F)F)nc2n1 | inconclusive [inhibitor, partial curve, poor fit] |  |
| CCC(C)(CC(=O)N(C)CCC#N)c1ccccc1 (stereo not drawn) | inconclusive [inhibitor, single point] |  |
| O=C1CC(CC(=O)N/N=C/c2ccccc2[N+](=O)[O-])=NN1 | inconclusive [inhibitor, partial curve] |  |
| O=C(COc1ccccc1Cl)Nc1ccc2nc(SCC(=O)N3CCOCC3)sc2c1 | inactive |  |
| CCc1ccc(C(=O)/C=C/c2ccc([N+](=O)[O-])o2)cc1 | inconclusive [inhibitor, full curve] |  |
| O=C(Oc1cccc(NC(=O)c2ccco2)c1)c1cccc(S(=O)(=O)N2CCCCC2)c1 | inconclusive [inhibitor, partial curve] |  |
| COC(=O)c1sccc1S(=O)(=O)N(CC(=O)Nc1cc(F)ccc1F)c1ccc(C)c(C)c1 | inactive |  |
| Cc1ccc(NC(=O)Cn2c(=O)n(CCCCC(=O)NCCc3ccccc3)c(=O)c3ccccc32)cc1 | inconclusive [inhibitor, partial curve] |  |
| CCS(=O)(=O)Nc1cccc(C2=NN(S(=O)(=O)c3ccc(F)cc3)C(c3cccs3)C2)c1 (stereo not drawn) | inconclusive [inhibitor, partial curve] |  |
| CC(C)c1ccc(C2NC(=O)NC3=C2CCc2ccccc23)cc1 (stereo not drawn) | inactive |  |
| Cc1ccc(-c2nn(-c3ccccc3)cc2CSC(=N)N)cc1 | inconclusive [inhibitor, single point] |  |
| O=C(NCCc1ccc(Cl)cc1)c1cc2c(s1)-c1ccccc1OC2 | inconclusive [inhibitor, full curve] |  |
| C=CCSC1=C(C#N)C(c2ccc(OCC)cc2)CC(=O)N1 (stereo not drawn) | inactive |  |
| Cc1ccc(-c2nn(-c3ccccc3)cc2C(=O)Nc2cccc(S(=O)(=O)N3CCOCC3)c2)cc1 | active: 14.1 µM |  |
| O=C(O)c1cccnc1SC1CC(=O)N(c2cccc(C(F)(F)F)c2)C1=O (stereo not drawn) | inactive |  |

| SMILES | Potency | activity, negative = inhibition |
| --- | --- | --- |
| COc1ccc(Nc2cc(C(=O)NCc3ccco3)c3ccccc3n2)c(OC)c1 | inconclusive [activator, single point] |  |
| COc1ccc(Cl)cc1NC(=O)NC(C)C(C)(C)C (stereo not drawn) | inconclusive [inhibitor, single point] |  |
| COc1ccc(CN=C(Nc2ccccc2)SC2CC(=O)NC2=O)cc1 (stereo not drawn) |  | inactive: -4.37% [at 2.34 µM] |
| N#CC1=C(N)N2C(=C(C#N)C1c1ccc(Br)cc1)Nc1ccccc12 (stereo not drawn) | inconclusive [inhibitor, partial curve] |  |
| CC(C)OCCCn1c(SCc2ccccc2Cl)nc2c(sc3ccccc32)c1=O | inactive |  |
| Cc1cc(NC(=O)CSc2nncn2-c2ccccc2)no1 | inactive |  |
| CCC1CN(C(=O)N2CCC(C(=O)NCCC3=CCCCC3)CC2)c2ccccc2O1 (stereo not drawn) | inactive |  |
| N#CC1=C(N)C(C#N)(C#N)C(c2cccnc2)C2CC(c3ccccc3)CC=C12 (stereo not drawn) | inconclusive [inhibitor, single point] |  |
| CCCCCn1c(CN2CCN(C(=O)OCC)CC2)nc2c1c(=O)[nH]c(=O)n2C | inactive |  |
| CCOC(=O)c1cc2c(=O)n3ccccc3nc2n(C(C)C)c1=NC(=O)c1c(-c2c(F)cccc2Cl)noc1C | inconclusive [inhibitor, single point] |  |
| Cc1cc2cc3c(cc2nc1SCc1ccccn1)OCCO3 | inactive |  |
| CCCCN(C)C(=O)C1CCC(=O)N(c2cc(OC)c(OC)c(OC)c2)C1c1ccc(OC)cc1 (stereo not drawn) | inactive |  |
| COc1ccc(CCN2C(=S)N(C)C(=O)C2CC(=O)Nc2ccc(F)cc2)cc1 (stereo not drawn) | inconclusive [inhibitor, partial curve] |  |
| CCOc1ccc2nc(NC(=O)CSc3ccc(Cl)cc3)sc2c1 | inconclusive [inhibitor, partial curve, poor fit] |  |
| COc1cc2cc(CN(Cc3cccs3)C(=S)Nc3ccccc3)c(=O)[nH]c2cc1OC | inconclusive [inhibitor, single point] |  |
| COc1ccccc1-c1c(C)nn2c(N3CCN(c4ccc(F)cc4)CC3)cc(C)nc12 | inconclusive [activator, single point] |  |
| Fc1ccc(Oc2cnns2)cc1 | inactive |  |
| O=C1OCCN1C(=O)[C@H]1[C@H](c2ccc(F)cc2)C(c2cccc(Cl)c2)=NN1c1ccc(Br)cc1 | inconclusive [inhibitor, partial curve] |  |
| Oc1ccc2ccccc2c1/C=N/Nc1ccccc1 | inconclusive [inhibitor, partial curve, poor fit] |  |
| CC(=O)Nc1ccc2nc(SCCOc3ccccc3Cl)sc2c1 | active: 11.2 µM |  |
| COc1ccc(NC(=O)CCc2c(C)nc3cc(-c4cccc(F)c4)nn3c2C)cc1Cl | inconclusive [inhibitor, partial curve] |  |
| C=C(C)CSc1nc2sc3c(c2c(=O)n1C1CCCCC1)CCN(C)C3 | inconclusive [inhibitor, partial curve] |  |
| CCOC(=O)/C=C/CCCC=O | inconclusive [inhibitor, single point] |  |

| SMILES | Potency | activity, negative = inhibition |
| --- | --- | --- |
| O=C(Cn1cc(S(=O)(=O)Cc2ccccc2Cl)c2ccccc21)Nc1ccc(F)cc1F | inconclusive [inhibitor, partial curve] |  |
| O=C(/C=C/C=C/c1ccccc1)c1ccco1 | inactive |  |
| N#CC1=C(S)N(c2ccc(F)cc2)C2(CCCCC2)NC1=O | active: 28.2 µM |  |
| O=C(NCCc1ccccc1)C1CCN(C(=O)c2sccc2-n2cccc2)CC1 | inconclusive [inhibitor, partial curve, poor fit] |  |
| CCn1c(C)c(C)c2cc(C(=O)NCCc3cc(OC)ccc3OC)ccc21 | inconclusive [activator, single point] |  |
| COc1cccc(CSc2nnnn2-c2ccc(O)cc2)c1 | inconclusive [inhibitor, single point] |  |
| CC(C)(C)c1ccc(C(=O)Nc2nnc3n2CCS3)cc1 | inactive |  |
| COc1ccc(COC(=O)N/N=C2/C[C@@H](O)[C@@H](O)[C@@H]3[C@@H]4C(=O)N(C[C@@H]5CCCO5)C(=O)[C@H]4CC[C@H]23)cc1 | inconclusive [inhibitor, single point] |  |
| Cc1[nH]c2ccccc2c1C(=O)CSc1nc2cc(S(=O)(=O)N3CCCCC3)ccc2o1 | inconclusive [inhibitor, partial curve] |  |
| COc1ccc(OC)c(NC(=O)C2=C(C)C(=O)OC23CCN(C(C)C)CC3)c1 | inconclusive [inhibitor, single point] |  |
| CN(C)c1ccc(NC(=O)Cn2ncn3c(cc4ccccc43)c2=O)cc1 | inconclusive [activator, single point] |  |
| CCOC(=O)C(NCc1ccccn1)(NC(=O)c1cccnc1)C(F)(F)F (stereo not drawn) | inactive |  |
| CCc1ccc(-n2c(=O)c3ccccc3n(Cc3ccccc3C#N)c2=O)cc1 | inactive |  |
| CCOC(=O)C1CCN(C(=O)Cc2c(C(=O)O)n(CC)c3ccccc23)CC1 | inactive |  |
| Cc1ccc(S(=O)(=O)NCCC(=O)Nc2ccc(Cl)c(Cl)c2)cc1 | inconclusive [inhibitor, single point] |  |
| O=c1c2c([N+](=O)[O-])cc([N+](=O)[O-])cc2sn1-c1ccc(Br)cc1 | active: 22.4 µM |  |
| C=CCN(C(=O)CSC1=NC(=O)CN1C(C)=O)c1nc(C)c(-c2ccccc2)s1 | inconclusive [inhibitor, single point] |  |
| CN1C=CC2=C(C#N)C(N)C(C#N)(C#N)[C@H](c3ccccc3)[C@H]2C1 (stereo partly drawn) | inconclusive [inhibitor, single point] |  |
| CCN(CC)c1ccc2c(c1)CCCN2 | inconclusive [inhibitor, single point] |  |
| Cc1ccc(C)c(NS(=O)(=O)c2cc(C(=O)Nc3cccc(N(C)S(C)(=O)=O)c3)ccc2C)c1 | inconclusive [inhibitor, partial curve] |  |
| COc1cc(Nc2nc(-c3ccc(OC)c(OC)c3)nc3ccccc23)cc(OC)c1 | inconclusive [inhibitor, full curve] |  |
| O=C(CCn1c(=O)c2ccccc2n(CC(=O)Nc2ccc(F)cc2)c1=O)NCCc1ccccc1 | inconclusive [inhibitor, partial curve] |  |
